The results in this text go back to patent US20220023439A1, “ACTIVATABLE ANTI-CD166 ANTIBODIES AND METHODS OF USE THEREOF” (priority 2018, published 2022).

This data set has as its system H292 xenografts. In words: Quantification of activated and intact activatable antibody in tumor and plasma by the Wes system. It is filed as in vivo. The following applies: nude mice with H292 xenografts, 5 mg/kg, one day after treatment.

B1: 7614.6-3001-HuCD166: anti-CD166 activatable antibody comprising the heavy chain sequence of SEQ ID NO: 480 and the light chain sequence of SEQ ID NO: 246 (antibody)
heavy: QITLKESGPTLVKPTQTLTLTCTFSGFSLSTYGMGVGWIRQPPGKALEWLANIWWSEDKHYSPSLKSRLTITKDTSKNQVVLTITNVDPVDTATYYCVQIDYGNDYAFTYWGQGTLVTVSS[skipping human IgG1 constant region]
light: QGQSGQGLCHPAVLSAWESCSSGGGSSGGSAVGLLAPPGGLSGRSDNHGGSDIVMTQSPLSLPVTPGEPASISCRSSKSLLHSNGITYLYWYLQKPGQSPQLLIYQMSNLASGVPDRFSGSGSGTDFTLKISRVEAEDVGVYYCAQNLELPYTFGQGTKLEIKRTVAAPSVFIFPPSDEQLKSGTASVVCLLNNFYPREAKVQWKVDNALQSGNSQESVTEQDSKDSTYSLSSTLTLSKADYEKHKVYACEVTHQGLSSPVTKSFNRGEC
Turning to B1, the “Activation of the activatable antibody in tumor as compared to plasma” value was “preferential activation in tumor”.
